PubChem BioAssay AID1508623 (National Center for Advancing Translational Sciences (NCATS), 2021)
The whole screen tested about 48,000 compounds, of which about 450 (0.94%) were called active. Not shown: some 19% with an inconclusive outcome. Calls follow the shape of the dose curve; as a rule, active = well fitted inhibition curve with a large enough effect; inconclusive = small, poorly fitted or top-dose-only effect; inactive = no such curve, though single readings can be large or run the other way. This is one part of the list.

Assay: Primary qHTS for Identification of Small Molecule Inhibitors of Huntingtin Promoter Activity; also: nearly all actives have a fitted effect of over 50% in size
Conditions: HEK293 HTT promoter firefly luciferase reporter (activity 0% = vehicle and -100% = no light), 24 h; series mostly up to 57.5 µM; activity change, negative = inhibition: at the top concentration
Summary of the method: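 Luminescence was read after Dual-Glo reagent and a 10 min room-temperature incubation. Values were normalized to vehicle (0% activity) and zero RLU (-100% activity). Reporter HEK293 cells had been exposed to compounds (up to 57.5 uM final) for 24 h.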

Activity change, negative = inhibition, inactive:
COc1ccccc1CNCCSc1nnnn1C -6.58%, COc1ccc(C(=O)N(Cc2ccco2)Cc2ccco2)cc1 -1.23%, Cc1ccccc1CN1C(=O)c2ccccc2Sc2ccc(C(=O)NCc3cccs3)cc21 -25.3%, Cc1noc(/C=C/c2ccccc2F)c1S(=O)(=O)N1CCC(C(=O)N(C)Cc2ccco2)CC1 -26.5%, COC(=O)c1c(N)n(-c2cc(Cl)cc(Cl)c2)c2nc3ccccc3nc12 -8.58%, CCC(=O)N1CCc2cc(Br)cc(S(=O)(=O)N3CCCC(C(=O)NCc4ccccc4)C3)c21 (configuration not stated) -25.4%, COc1ccc(S(=O)(=O)NCC(c2ccco2)N2CCOCC2)cc1C (configuration not stated) -21%, COc1ccccc1N1CCN(S(=O)(=O)c2c(C)sc3ncn(CC(=O)Nc4ccccc4F)c(=O)c23)CC1 -8.43%, CCOc1ccc(/C=C/c2nc3ccccc3n2S(=O)(=O)c2ccc(Br)cc2)cc1 28.6%, COc1cccc(NC(=O)Cn2c(=O)n(-c3ccc(Cl)cc3)c(=O)c3sc4ccccc4c32)c1 -13%, O=C(Cn1c(=O)nc(-c2ccccc2)c2cc(Cl)ccc21)NCCc1ccc(Cl)cc1 -19.9%, CCN1CCN(c2ncc3c(n2)CCN(Cc2ccc(Br)s2)C3)CC1 -20.9%, CCc1ccc(-c2[nH]nc3nc(-c4ccc(OC)cc4)cc(C(=O)NCCc4ccc(OC)c(OC)c4)c23)cc1 -50.8%, CCOc1ccc(NC(=O)CSc2nnc(CNC(=O)c3c(F)cccc3Cl)o2)cc1 -7.76%, Cc1ccc2c(c1)N(C(=O)NCc1ccccc1)CCO2 2.93%, CCC(C)NC(=O)c1ccc2c(=O)n3c(nc2c1)CCCCC3 (configuration not stated) 10.7%, Cc1ccc(NC(=O)Cn2nnc3sc(-c4ccccc4)cc3c2=O)cc1Cl 15.2%, COc1ccc(C(=O)NCC2(N3CCN(C)CC3)CCCCC2)cc1 -10.3%, COC(=O)c1ccc(Cl)cc1NC(=O)N(Cc1ccc(C)o1)C1CCN(C(C)=O)CC1 -14.8%, COc1ccc(C)cc1NS(=O)(=O)c1ccc2c(c1)n(C)c(=O)n2C -6.92%, CCC(CC)c1nn2c(=O)cc(COc3ccc(NC(=O)c4cccc(Cl)c4)cc3)nc2s1 -11.5%, CCn1c(=O)c(=O)n(CC)c2cc(N3CCCCC3)c(NC(=O)c3cccc(F)c3)cc21 -2.78%, Cc1nnc2c(Nc3cccc(O)c3)nc3ccccc3n12 15.6%, CCCN1Cc2cccc(C(=O)Nc3cc(C)cc(C)c3)c2C1=O -6.5%, CC(=O)Nc1ccc(C)cc1-c1nc2ccccc2n(CC(=O)Nc2cc(Cl)ccc2C)c1=O -9.37%, COc1ccc(Cl)cc1NC(=O)CCC(=O)N1CCOc2ccccc21 -29.9%, O=C1c2cccc3c2[C@H](CCC3)CN1[C@@H]1CN2CCC1CC2 6.13%, COc1ccc(NC(=O)CSc2nc(-c3ccco3)cc(C(F)(F)F)n2)cc1 -28.8%, COc1ccc(CC(=O)NCC(c2ccc(N(C)C)cc2)N2CCOCC2)cc1 (configuration not stated) -5.25%, CC(C)c1ccc(OC(=O)c2cc(-c3ccc(Cl)cc3)on2)cc1 -15.1%, Cc1ccc(-n2ncc3c(NCCCn4ccnc4)ncnc32)cc1Cl -19.5%, COc1ccc(N2C(=O)C(CC(=O)Nc3ccc(F)cc3)N(Cc3ccc4c(c3)OCO4)C2=O)cc1 (configuration not stated) -22.4%, CCN(CC)C(=O)Cn1c(=O)nc(-c2ccccc2F)c2cc(Cl)ccc21 -6.12%, CCCNC(=O)N1[C@H](c2ccc(C)s2)[C@@H](C)C(=O)[C@@H](C)[C@@H]1c1ccc(C)s1 -15.6%, NC(=O)COCCN1CCN(C(c2ccccc2)c2ccc(Cl)cc2)CC1 (configuration not stated) 2.77%, O=C1c2[nH]nc(-c3ccccc3O)c2C(c2ccccc2F)N1Cc1ccncc1 (configuration not stated) -11.1%, CCOC(=O)Cc1ccc(NC(=O)NCc2cccn2Cc2ccccc2)cc1 -23.8%, COc1ccc(-n2c(=O)c3sc4ccccc4c3n(CC(=O)Nc3ccccc3F)c2=O)cc1 13.2%, CCC(Cc1ccccc1)NC(=O)Cn1ncc2c3ccccc3n(Cc3ccccc3)c2c1=O (configuration not stated) 5.7%, CCc1nc2nc(C)cc(Nc3ccc(OC)cc3OC)n2n1 -27.7%, CC(C)C1CCC(C(=O)N[C@H](Cc2ccccc2)C(=O)O)CC1 (some centres not stated), Cc1ccc2c(c1)NC(=O)C(CC(=O)Nc1ccccc1Cl)O2 (configuration not stated) 3.07%, Cc1cc(C)n2nc(SCC(=O)Nc3ccccc3C)nc2n1 -8.37%, Cc1ccc(Cl)cc1N1CCN(C(=O)c2cc(S(=O)(=O)N3CCCC3)cn2C)CC1 -28.4%, C=Cc1ccc(CN2C(=O)N(c3ccc(CC)cc3)S(=O)(=O)c3ccccc32)cc1 -29.8%, COc1ccc(C)cc1NC(=O)CSc1nc(=O)n(Cc2ccncc2)c2c1CCC2 -3.5%, COc1ccc(C)cc1Nc1nc2cc(Cl)c(Cl)cc2nc1-n1nc(C)cc1C 6.8%, Cc1ccc(NC(=O)Cn2c(=O)n(-c3ccccc3)c(=O)c3c4c(sc32)CCCC4)cc1 -6.83%, COc1cc(NC(=O)CN2C(=O)COc3ccc(S(=O)(=O)N4CCCCC4)cc32)cc(OC)c1 -16.3%, CCCN1C(=O)C(Cc2nc3ccccc3c(=O)n2-c2ccccc2)c2cc(C)ccc21 (configuration not stated) -29.8%, COC(=O)c1ccc(OCC2c3cc(OC)c(OC)cc3CCN2C(=O)C(C)C)cc1 (configuration not stated) -28.3%, CCOC(=O)COc1ccc(C)cc1C(=O)c1ccn2nc(-c3ccc(C)cc3)cc2n1 -9.32%, O=C(CSc1ncc2c(n1)-c1ccccc1N(Cc1ccccc1)S2(=O)=O)Nc1ccccc1 -14.5%, COCCNC(=O)c1ccc(CSc2nc3ccncc3n2Cc2ccccc2)cc1 8.74%, CCC(=O)N1CCc2cc(S(=O)(=O)CCC(=O)N3CCN(c4cc(C)ccc4C)CC3)ccc21 4%, COc1cccc(NC(=O)CSc2nc3ccccc3n2C)c1 13%, CCOc1ccc(NC(=O)c2c(NC(=O)Cc3ccccc3)sc3c2CCC(C)C3)cc1 (configuration not stated) -31.8%, COc1ccc(Cn2nnc(C(=O)Nc3cc(OC)ccc3OC)c2N)cc1 -5.31%, COCCCNC(=O)C1CCN(Cc2nc(-c3ccc(OC)c(OC)c3)oc2C)CC1 -6.31%, Cc1ccc(NC(=O)Cn2c(=O)n(Cc3ccco3)c(=O)c3ccc(C(=O)NC4CCCC4)cc32)c(C)c1 -7.04%, CCn1c(=O)cc(SCC(=O)NCCc2cc(OC)ccc2OC)c2ccccc21 -5.36%, CCOc1ccc(NC(=O)c2c(NCc3ccc(C)o3)sc3c2CCC(C)C3)cc1 (configuration not stated) -30.3%
